According to PubChem BioAssay AID686978 (National Center for Advancing Translational Sciences (NCATS), 2013):
Among all 420,000 compounds or so, about 64,000 (15%) were called active. Inconclusive means that the source gave no clear call. Such entries were picked first, then a sample of the others. Calls follow the shape of the dose curve; as a rule, active = well fitted inhibition curve with a large enough effect; inconclusive = small, poorly fitted or top-dose-only effect; inactive = flat fitted curve, though single readings scatter. Potencies of inconclusive entries are left out as doubtful fits.

test: qHTS for Inhibitors of human tyrosyl-DNA phosphodiesterase 1 (TDP1): qHTS in cells in absence of CPT; details: DT40 Tdp1-/- hTDP1 cells, no CPT, ATP luminescence, 48 h; activity change, negative = growth inhibition: at 46.2 µM (top of the series) unless noted; also: nearly all actives have a fitted effect of over 55% in size
In short: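 Cells were dispensed at 400 per well, compounds added by pin tool, plates incubated ≥48 hr at 37 °C, then CellTiter-Glo added for 30 min at room temperature before luminescence reading. Line: DT40 Tdp1-/- complemented with hTDP1; camptothecin omitted.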
% is scaled to controls: 0 for no effect and ±100 for the full control effect; potency is read from the fitted curve at half-maximal effect; tags tell the direction and shape of the fitted curve.

| Structure (SMILES) | Potency | activity change, negative = growth inhibition |
| --- | --- | --- |
| O=C(NC(=S)NNC(=O)c1ccccc1[N+](=O)[O-])c1ccccc1 | inconclusive [inhibitor, single point] |  |
| CN(C(=O)CC1C(=O)NCCN1CC(c1ccccc1)c1ccccc1)C(C1CC1)C1CC1 (stereo not drawn) | inconclusive [inhibitor, single point] |  |
| CN(CC(=O)Nc1ccc(Cl)c(S(=O)(=O)N2CCOCC2)c1)C(=O)c1ccc(C#N)cc1 |  | inactive: 26.1% |
| Cc1ccccc1C(=O)Nc1ccc(C(=O)OCc2cc(=O)n3nc(C(C)C)sc3n2)cc1 |  | inactive: -25.5% |
| CCc1ccccc1NC(=O)C1CCCN(c2nn3c(=O)cc(C)nc3s2)C1 (stereo not drawn) | inconclusive [inhibitor, partial curve, poor fit] |  |
| CN(CC(=O)Nc1ccc(Cl)cc1)C(=O)c1sccc1-c1ccccc1 | inconclusive [inhibitor, single point] |  |
| O=C(CCC(=O)N(CC(=O)NC1CCCC1)c1ccccc1F)Nc1nccs1 |  | inactive: -16% |
| CC(C)C(N)c1csc(Nc2ccc(C(F)(F)F)cn2)n1 (stereo not drawn) | inconclusive [inhibitor, single point] |  |
| CCOC(=O)c1ccc(NC(=O)CCc2c(C)nc3c(-c4ccc(F)cc4)c(C)nn3c2C)cc1 |  | inactive: -2.64% |
| O=C(Nc1cccc(-c2cccc(F)c2)c1)C1CCN(C2CCOCC2)CC1 | inconclusive [inhibitor, single point] |  |
| O=C(O)CCC(=O)Nc1ccccc1C(=O)N1CCN(c2ccc(Cl)cc2)CC1 |  | inactive: 4.79% |
| C/C(=N/OC(=O)c1c(-c2ccccc2Cl)noc1C)c1cnccn1 | inconclusive [inhibitor, single point] |  |
| COc1cc2c(cc1OC)-c1cc(Nc3ccc(N(C)C)cc3)nc(=O)n1CC2 | inconclusive [inhibitor, single point] |  |
| COC(=O)[C@H](CCSC)NC(=O)Nc1ccc(S(N)(=O)=O)cc1 |  | inactive: 21.9% |
| O=C(O)C(C=C(Cl)Cl)N1CCOCC1 (stereo not drawn) |  | inactive: -6.78% |
| O=C(NNC(=O)c1cc(-c2ccc(Br)cc2)nc2ccccc12)c1csc(N2CCOCC2)n1 | inconclusive [inhibitor, single point] |  |
| N#Cc1ccccc1Sc1ccccc1C(=O)OCC(=O)NC12CC3CC(CC(C3)C1)C2 | inconclusive [inhibitor, single point] |  |
| CCC(C)NS(=O)(=O)c1ccc(NC(=O)CNCc2cccs2)cc1 (stereo not drawn) | inconclusive [inhibitor, partial curve] |  |
| COc1cc(/C=N/NC(=S)Nc2cccc(S(=O)(=O)N(C)C)c2)ccc1O | active: 18.4 µM |  |
| Cc1cccc(NC(=S)NNC(=O)c2ccc3c(c2)OCO3)c1 | inconclusive [inhibitor, single point] |  |
| O=C1C=C(c2ccc(-c3ccccc3)cc2)C[C@@H](c2ccc(F)cc2)C1 | inconclusive [inhibitor, single point] |  |
| O=[N+]([O-])c1cccc(-c2n[nH]c(=S)n2-c2ccc(Br)cc2)c1 | inconclusive [inhibitor, partial curve] |  |

| Structure (SMILES) | Potency | activity change, negative = growth inhibition |
| --- | --- | --- |
| CCOC(=O)c1cc2c(=O)n3ccccc3nc2n(C(C)C)c1=NC(=O)c1c(-c2ccccc2Cl)noc1C | inconclusive [inhibitor, partial curve] |  |
| O=C(CCCCCN1C(=O)c2cccc3cccc(c23)C1=O)NCCO | inconclusive [inhibitor, single point] |  |
| Cc1ccc(CCNC(=O)C2CCC(CNc3c(N4CCC(C)CC4)c(=O)c3=O)CC2)cc1 (stereo not drawn) | inconclusive [inhibitor, single point] |  |
| Cc1cc(OC(=O)c2ccccc2)n(CCC#N)n1 | inconclusive [inhibitor, partial curve] |  |
| COc1c(C)cc(C(O)c2ncc(-c3ccccc3Cl)[nH]2)cc1C (stereo not drawn) | inconclusive [inhibitor, single point] |  |
| CCn1c2ccccc2c2cc(NC(=O)c3ccc([N+](=O)[O-])cc3)ccc21 | inconclusive [inhibitor, full curve, poor fit] |  |
| Cc1ccsc1/C=N/NC(=O)CO |  | inactive: 7.57% |
| CCOc1ccc(NC(=O)C2CCN(S(=O)(=O)c3cc(-c4noc(C)n4)ccc3C)CC2)cc1 | inconclusive [inhibitor, partial curve] |  |
| CCOC(=O)c1cc(-c2ccccc2)n(CC(=O)Nc2ccc(OC)cc2OC)c1C | inconclusive [inhibitor, single point] |  |
| CCN(CC)S(=O)(=O)c1ccc(N(C)Cc2cccc(OC)c2OC)nc1 | active: 18.4 µM |  |
| Cn1nnc2cc(NC(=O)Nc3cccc(Cl)c3)ccc21 |  | inactive: -5.1% |
| NC(=O)c1ccc(N2CCN(c3ccccc3F)CC2)c([N+](=O)[O-])c1 | inconclusive [inhibitor, single point] |  |
| Cc1onc(-c2ccccc2Cl)c1C(=O)Nc1nnc(-c2ccc(Br)cc2)s1 | inconclusive [inhibitor, single point] |  |
| CCCCC(=O)Oc1c(S(=O)(=O)c2ccc(C)cc2)c(C)nn1C(C)(C)C | inconclusive [inhibitor, single point] |  |
| N#Cc1ccc(NC2c3ccccc3CC2O)cc1 (stereo not drawn) | inconclusive [inhibitor, single point] |  |
| CC(C)CC(=O)NCc1nc2cccnc2n1Cc1ccccc1 |  | inactive: -16.7% |
| Cc1[nH]nc2c1C(c1ccccc1)C1=C(CC(C)(C)CC1=O)N2 (stereo not drawn) | inconclusive [inhibitor, single point] |  |
| O=C(NCc1ccccc1)C1Cc2c(-c3ccc(Cl)cc3)ccnc2O1 (stereo not drawn) | active: 0.82 µM |  |
| C/C(NC(=O)c1ccccc1F)=C1\C(=O)C[C@@H]2[C@H]1C2(C)C | inconclusive [inhibitor, partial curve, poor fit] |  |
| COc1ccc(S(=O)(=O)N2CCCCCC2)cc1C(=O)N(C)Cc1ccc(OC)c(OC)c1OC | active: 23.1 µM |  |
| COc1ccccc1-c1cc2nc(-c3ccccc3)cc(N3CCN(C(=O)c4ccco4)CC3)n2n1 | active: 6.51 µM |  |
